# According to PubChem BioAssay (EPA / NIEHS):
# Certain results were filed several times, with different values. This is not the full list of results. There may be further records. Values given together repeat one measurement (runs, samples, wells, individuals or studies). Records with an inconclusive call do not appear. The calls were made as follows, unless noted: active = hit-call score of the fitted dose curve at least 0.9, where 1 is the maximum; inactive = score below 0.9.
# What was measured:
# [1] = CCTE_Shafer_MEA_dev_bursting_electrodes_number: CCTE's Neural Network Formation Assay for Number of Bursting Electrodes, Shafer Lab (AID 2284043; active = hit-call score of the fitted dose curve at least 0.9, where 1 is the maximum;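 also: potency is for loss of bursting electrodes relative to DMSO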)
# Method: CCTE_Shafer_MEA_dev assay is conducted using Axion Biosystems 48 well microelectrode array (MEA) plates and Maestro recording system. Each well of the MEA plate contains a grid of 16 microelectrodes embedded in the culture surface. Electrically active cells, such as neurons, can be cultured over the electrodes, and electrical activity in these cells can be recorded extracellularly. The spontaneous firing of neurons is captured from each electrode on a microsecond timescale providing both temporally and spatially precise data. […] The CCTE_Shafer_MEA_dev assay uses primary cultures of rat cortical neurons. Recordings are made on days post-plating 5, 7, 9 and 12. As these cultures mature over time, neural networks develop functional activity and form cohesive networks in which electrical activity can be highly coordinated. CCTE_Shafer_MEA_dev_bursting_electrodes_number is 1 of 19 assay components of the CCTE_Shafer_MEA_dev assay. […] To collapse across multiple recordings made on days post-plating 5, 7, 9 and 12, the trapezoidal area-under-the-curve of the component is calculated.Data from the assay component CCTE_Shafer_MEA_dev_bursting_electrodes_number was analyzed into 1 assay endpoint. This assay endpoint, CCTE_Shafer_MEA_dev_bursting_electrodes_number, was analyzed in the negative analysis fitting direction relative to DMSO as the negative control and baseline of activity. […]
# [2] = CCTE_Shafer_MEA_dev_per_burst_interspike_interval: CCTE's Neural Network Formation Assay for Burst Interspike Interval, Shafer Lab (AID 2284044);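 also: mean spike spacing inside bursts as AUC over recordings on days 5 7 9 12; potency for a decrease of within-burst interspike interval below DMSO level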
# How it was run: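 Primary rat cortical neurons on 48-well MEA plates, exposed from day 0 through day 12, treatment renewed at DIV 5 and 9. Within-burst interspike interval recorded days 5, 7, 9, 12, well-averaged, summarised as AUC; negative fit versus DMSO.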
# [3] = CCTE_Shafer_MEA_dev_per_network_spike_spike_percent: CCTE's Neural Network Formation Assay for Percent of Spikes in a Network Spike, Shafer Lab (AID 2284054)
# How it was run: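 Primary rat cortical neurons on 16-electrode MEA wells (PEI-coated, laminin at plating), exposed from day 0 with renewal at DIV 5 and 9; spikes within 0.05 s of network-spike peaks over total spikes, AUC across days 5, 7, 9, 12.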
# [4] = CCTE_Shafer_MEA_dev_mutual_information_norm: CCTE's Neural Network Formation Assay for Mutual Information Normalization, Shafer Lab (AID 2284091);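 also: mutual information between electrodes summarised as area under curve across four recording days; potency is for a decrease in mutual information relative to DMSO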
# How it was run: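 Rat cortical cultures, 48-well MEA, continuous exposure DIV 0–12 with full media/compound change DIV 5 and 9. Readout: inter-electrode mutual information, AxIS adaptive spike detection; AUC across DIV 5/7/9/12 recordings; DMSO baseline, negative fitting direction.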
smiles,measurement,setting,value
CN(C)CCCn1cc(C2=C(c3c[nH]c4ccccc34)C(=O)NC2=O)c2ccccc21,AC50,[1],"active: 3.76, 1.33, 4.21, 2.32 µM [separate samples]"
same,AC50,[2],"active: 7.82, 2.85, 5, 1.99 µM [separate samples]"
same,AC50,[3],"active: 2.8 µM, 816 nM, 2.55 µM, 5 µM [separate samples]"
same,AC50,[4],"active: 449 nM, 239 nM, 1.82 µM, 1.54 µM [separate samples]"
